Laboratory results reported in PubChem BioAssay AID624296 (National Center for Advancing Translational Sciences (NCATS), 2012).
Hit rate of the full screen: of about 350,000 compounds, about 9,900 (2.8%) were called active. The shares of active, inactive and inconclusive entries below differ from those in the screen. Calls follow the shape of the dose curve; as a rule, active = well fitted activation curve with a large enough effect; inconclusive = small, poorly fitted or top-dose-only effect; inactive = no such curve, though single readings can be large or run the other way. Potencies of inconclusive entries are left out as doubtful fits.

Test: A quantitative high throughput screen for small molecules that induce DNA re-replication in MCF 10a normal breast cells. Also: nearly all actives have a fitted effect of over 50% in size. As to activity, positive = re-replication: % of control where 0% means no effect.
Conditions: MCF 10A DNA re-replication, Hoechst nuclear intensity, 48 h; activity, positive = re-replication: at 46.1 µM (top of the series)
Potency is read from the fitted curve at half-maximal effect; tags tell the direction and shape of the fitted curve.

| SMILES | Potency | activity, positive = re-replication |
| --- | --- | --- |
| Cc1cc(/C=N/NC(=O)c2ccc(O)cc2)c(C)n1C1CC1 | inconclusive [activator, partial curve, poor fit] |  |
| CCN(CC)C(=O)CSc1nc2c(sc(=S)n2-c2ccccc2)c(=O)n1Cc1ccco1 | inconclusive [activator, single point] |  |
| Cc1cccc(C(=O)NC(C)C(c2cccs2)N2CCOCC2)c1 (stereo not drawn) |  | inactive: 3.55% |
| CNC(=O)NC(=O)C(C)OC(=O)c1ccc(Cl)c(S(=O)(=O)Nc2ccc(F)cc2)c1 (stereo not drawn) |  | inactive: 2.56% |
| O=C1c2cc([N+](=O)[O-])ccc2-c2cc(Cl)c(NC(=O)C(F)(F)F)cc21 | inconclusive [activator, partial curve, poor fit] |  |
| Cc1ccccc1N1CCN(C2CCCN(C(=O)c3noc4c3CCCC4)C2)CC1 (stereo not drawn) | inconclusive [activator, partial curve] |  |
| CC(NCc1nc2ccccc2n1C)C12CC3CC(CC(C3)C1)C2 (stereo not drawn) | inconclusive [activator, single point] |  |
| CCN(C(=O)COC(=O)C(C)(C)Oc1ccc(Cl)cc1)c1c(N)n(Cc2ccccc2)c(=O)[nH]c1=O |  | inactive: -2.11% |
| CCc1ccc2nc(Nc3ccc(OC)cc3OC)c(C#N)cc2c1 | inconclusive [activator, single point] |  |
| COCCn1c(-c2ccc3ccccc3c2)nc2c1c(=O)[nH]c(=O)n2CC(C)C | inconclusive [activator, single point] |  |
| O=C(Nc1ccncc1)c1ccc(Br)cc1 |  | inactive: 7.91% |
| COc1cc(/C=C/C(=O)OC(C)C(=O)NC2CCCCC2C)cc(Cl)c1OC (stereo not drawn) |  | inactive: 5.1% |
| COc1ccccc1CNC(=O)c1cc(-c2ccccc2)n(Cc2cc(C)no2)n1 | inconclusive [activator, partial curve, poor fit] |  |
| COc1cccc2cc(C(C)N(CCCN3CCOCC3)C(=S)Nc3cc(C)cc(C)c3)oc12 (stereo not drawn) | inconclusive [activator, single point] |  |
| COc1ccc2nc(NC(=O)Nc3ccccc3)sc2c1 | inconclusive [activator, single point] |  |
| CC1Cc2ccccc2N1C(=O)c1ccc2snnc2c1 (stereo not drawn) |  | inactive: -28.4% |
| O=C(Nc1ccc2oc(=O)ccc2c1)c1ccc(-c2ccccc2[N+](=O)[O-])o1 | active: 11.6 µM |  |
| COc1ccc(N2CCN(C(=O)c3ccc(CNS(=O)(=O)c4ccc(C)cc4)cc3)CC2)cc1 | inconclusive [activator, partial curve, poor fit] |  |
| Oc1[nH]c2ccccc2c1C=Nc1ccc2c(c1)OCCO2 | inconclusive [activator, partial curve, poor fit] |  |
| COc1ccc(C(=O)NCC(c2ccco2)N2CCc3ccccc32)c(OC)c1 (stereo not drawn) | inconclusive [activator, partial curve] |  |
| CC(C)Cn1c(-c2ccccc2F)n[nH]c1=S |  | inactive: 1.94% |
| CCn1c(=O)cc(OCC(=O)N(C)C2CCCCC2)c2ccccc21 |  | inactive: 3.55% |
| CN1CCN(C(=O)c2ccccc2[N+](=O)[O-])CC1 | inconclusive [activator, single point] |  |

| SMILES | Potency | activity, positive = re-replication |
| --- | --- | --- |
| Cc1ccc(N=Nc2c(N)[nH]n3c(=O)cc(C)nc23)cc1 | inconclusive [activator, single point] |  |
| CCOc1cc(C(=O)N(C)CC(=O)Nc2cccc3ccccc23)ccc1OC |  | inactive: -0.0445% |
| CCCN1C(=O)/C(=C\c2ccncc2)SC1=Nc1ccccc1 | inconclusive [activator, single point] |  |
| CCOc1ccc2oc(C(=O)N(CC)CC(=O)Nc3c(F)cccc3F)c(C)c2c1 |  | inactive: 4.61% |
| O=C1/C(=C/c2ccncc2)CCC/C1=C\c1ccncc1 | active: 3.66 µM |  |
| COCCCNCCCCOc1ccc(Br)cc1Cl | inconclusive [activator, partial curve, poor fit] |  |
| COc1ccc(CN(C)C(=O)c2ccc(Cl)c(S(=O)(=O)NCc3cccnc3)c2)cc1F | inconclusive [activator, partial curve, poor fit] |  |
| C=CCn1c(COc2ccc(Cl)cc2)nnc1SCC(=O)NCC(=O)OCC | inconclusive [activator, partial curve, poor fit] |  |
| Oc1ccc(Br)cc1-c1cc(-c2ccc(Cl)cc2)n[nH]1 | active: 14.6 µM |  |
| COc1ccc([C@@H]2COc3c(ccc4c3C=CC(C)(C)O4)C2)c(OC)c1 |  | inactive: -4.4% |
| Cc1ccc(SCCNC(=S)Nc2cc(C)ccc2C)cc1 | inconclusive [activator, single point] |  |
| Cc1ccnc(NS(=O)(=O)c2ccc(NC(=O)CC(C)c3ccccc3)cc2)n1 (stereo not drawn) |  | inactive: 0.217% |
| CCn1c(C)nc2cc(C(=O)N/N=C/c3cccc(OC)c3O)ccc21 | inconclusive [activator, partial curve, poor fit] |  |
| O=C(Nc1cccnc1)c1cc(-c2cc(Cl)ccc2O)n[nH]1 | inconclusive [activator, partial curve, poor fit] |  |
| CC(=O)Nc1ccc(S(=O)(=O)N2CCN(CCC#N)CC2)cc1 |  | inactive: 1.02% |
| O=S(=O)(Nc1ccc(S(=O)(=O)N2CCOCC2)cc1)c1ccc(Br)cc1 | inconclusive [activator, single point] |  |
| CC(=O)Nc1ccc(S(=O)(=O)NCC2CC3CCC2C3)cc1 (stereo not drawn) | inconclusive [activator, partial curve, poor fit] |  |
| C=CCOc1ccc(Br)cc1/C=C1/SC(=Nc2ccc(C(=O)O)cc2)NC1=O | active: 8.2 µM |  |
| COc1ccc(-c2noc(C3CCCN(S(=O)(=O)c4cccc(Cl)c4)C3)n2)cc1OC (stereo not drawn) | inconclusive [activator, single point] |  |
| CC(C)(C)NC(=O)C(c1ccco1)N(Cc1ccc2c(c1)OCO2)C(=O)c1snc(C(N)=O)c1N (stereo not drawn) |  | inactive: 1.2% |
| COc1cccc2cc(-c3csc(CCn4nc(C)cc4C)n3)c(=O)oc12 | inconclusive [activator, single point] |  |
| Cc1nn(-c2ccccc2)c(N)c1N=Nc1ccccc1 | inconclusive [activator, single point] |  |
| Cc1nc(-c2ccccc2)sc1C(=O)Nc1ccc(S(N)(=O)=O)cc1 | inconclusive [activator, partial curve, poor fit] |  |

| SMILES | Potency | activity, positive = re-replication |
| --- | --- | --- |
| CCOC(=O)c1ccc(NC(=O)Cc2cccs2)cc1 | inconclusive [activator, full curve, poor fit] |  |
| N#Cc1ccc(Cn2c(-c3ccc(F)cc3)noc2=O)cc1 | inconclusive [activator, partial curve, poor fit] |  |
| CCc1cc(C(=O)c2ccc(OC)cc2)c(NC(=O)CCC(=O)O)s1 |  | inactive: 8.44% |
| O=C(N[C@@H](Cc1ccccc1)C(=O)OCc1ccccc1)c1nc[nH]c1C(=O)N[C@@H](Cc1ccccc1)C(=O)OCc1ccccc1 |  | inactive: 16.7% |
| CCCCOC(=O)c1ccc(NC(=O)c2c(OC)cccc2OC)cc1 |  | inactive: 15.3% |
| O=C(Nc1ccc(Oc2ccc(NC(=O)Nc3ccc([N+](=O)[O-])cc3)cc2)cc1)Nc1ccc([N+](=O)[O-])cc1 |  | inactive: -1.49% |
| CC1CCCCC1NC(=O)CCn1c(=O)oc2ccccc21 (stereo not drawn) | inconclusive [activator, full curve] |  |
| COc1cccc(/C=N/NC(=O)c2[nH]c(C)c(C(=O)N/N=C/c3cccc(OC)c3)c2C)c1 | inconclusive [activator, partial curve, poor fit] |  |
| COC(=O)c1sc(N2CCN(c3ccc(Cl)cc3)CC2)nc1N |  | inactive: 1.07% |
| O=C(NCCSCc1c(F)cccc1Cl)c1ccc(CN2CCOCC2)cc1 | inconclusive [activator, single point] |  |
| Cc1csc(CNc2ncnc3ccc(-c4ccccc4Cl)cc23)c1 | inconclusive [activator, single point] |  |
| COc1ccc(C(C)(C)C)cc1NC(=O)C1CC=CCC1C(=O)O (stereo not drawn) | inconclusive [activator, partial curve, poor fit] |  |
| CCN(CC)S(=O)(=O)c1ccc(Cl)c(C(=O)Nc2ccc(Cl)cc2[N+](=O)[O-])c1 | inconclusive [activator, partial curve, poor fit] |  |
| CCN(CC(=O)Nc1c(F)cccc1F)C(=O)/C=C/c1ccc(C)o1 | inconclusive [activator, partial curve, poor fit] |  |
| OC(CNC1CCCC1)COc1ccc(-c2ccccc2)cc1 (stereo not drawn) | inconclusive [activator, single point] |  |
| CCCCCN(C(=O)CCC(=O)OCC(=O)c1cccc(OC)c1)c1c(N)n(CCCC)c(=O)[nH]c1=O | inconclusive [activator, single point] |  |
| O=C(C1CCCN(CCCc2ccccc2)C1)N1CCCCCC1 (stereo not drawn) | inconclusive [activator, partial curve, poor fit] |  |
| CCN=c1scc(C)n1/N=C/c1cc(Br)c(O)c(Br)c1 | active: 20.6 µM |  |
| Cc1nc(-n2nnc3ccccc32)c2c3c(sc2n1)CCCC3 | inconclusive [activator, partial curve, poor fit] |  |
| CCN1CCN(C(=S)NCC2CCCO2)CC1 (stereo not drawn) |  | inactive: -1.01% |
| Cc1cc(Oc2ccccc2)nc(SCC(=O)Nc2ccc(Cl)cc2Cl)n1 |  | inactive: 12.3% |
| O=C(c1ccco1)N1CCN(C(=O)c2cccc3c2C(=O)N(C2CCCCC2)C3)CC1 |  | inconclusive: 100% [activator] |
